Test [1] concerns the target T1, N-terminal truncated recombinant human PDE7B enzyme (Homo sapiens (Human), UniProt Q9NP56). The test is described as follows: PDE7 inhibition, IMAP TR-FRET enzymatic assay using PDE7B. The conditions noted are these: negative log of half-maximal molar inhibitory concentration, recombinant human PDE7B (91-450aa), 50 nM FAM-cAMP.
In test [2] the target is T1, N-terminal truncated recombinant human PDE7B enzyme. The test is described as follows: biochemical.

From patent US11685745B2, “Substituted benzoxazole and benzofuran compounds as PDE7 inhibitors” (Dart NeuroScience, LLC, priority 2017, dated 2023) come the findings set out here.

Some results are limits rather than exact numbers.

As for `CN1CCC(N(C)Cc2cc3cc(Cl)c4c(c3o2)C2(CCCCC2)NC(=O)N4)CC1` [Example 562, 5′-Chloro-2′-{[methyl(1-methylpiperidin-4-yl)amino]methyl}-7′,8′-dihydro-6′H-spiro[cyclohexane-1,9′-furo[2,3-f]quinazoline]-7′-one], the “PDE7b (pIC50)” value in test [1] was less than 6.

Turning to `O=C1Nc2c(Cl)cc3cc(CN4CCN(C(=O)C5CCCO5)CC4)oc3c2C2(CCCCC2)N1` (stereo not drawn) [Example 489, 5′-Chloro-2′-{[4-(oxolane-2-carbonyl)piperazin-1-yl]methyl}-7′,8′-dihydro-6′H-spiro[cyclohexane-1,9′-furo[2,3-f]quinazoline]-7′-one], in test [2], the IC50 is 100 to 1000 nM.

For the molecule `CN(C)C(=O)CNCc1nc2cc(F)c3c(c2o1)C1(CCCCC1)NC(=O)N3` [Example 225, 2-({5-Fluoro-7-oxo-7,8-dihydro-6H-spiro[[1,3]oxazolo[5,4-f]quinazoline-9,1′-cyclohexane]-2-ylmethyl}amino)-N,N-dimethylacetamide], in test [1], the “PDE7b (pIC50)” value was greater than 8.

Turning to `O=C1Nc2c(Cl)cc3cc(CNCCCN4CCCC4=O)oc3c2C2(CCCCC2)N1` [Example 492, 5′-Chloro-2′-({[3-(2-oxopyrrolidin-1-yl)propyl]amino}methyl)-7′,8′-dihydro-6′H-spiro[cyclohexane-1,9′-furo[2,3-f]quinazoline]-7′-one], in test [1], the “PDE7b (pIC50)” value is reported as greater than 8.

Turning to `CC1(C)C2CN(Cc3cc4cc(Cl)c5c(c4o3)C3(CCCCC3)NC(=O)N5)CC21` (stereo not drawn) [Example 563, 5′-Chloro-2′-({6,6-dimethyl-3-azabicyclo[3.1.0]hexan-3-yl}methyl)-7′,8′-dihydro-6′H-spiro[cyclohexane-1,9′-furo[2,3-f]quinazoline]-7′-one], in test [1], the “PDE7b (pIC50)” value was less than 6.

Turning to `Cc1nc2cc(Cl)c3c(c2o1)C1(CCC(C)(C)CC1)NC(=O)N3` [Example 12, 5-Chloro-2,4′,4′-trimethyl-7,8-dihydro-6H-spiro[[1,3]oxazolo[5,4-f]quinazoline-9,1′-cyclohexane]-7-one], the “PDE7b (pIC50)” value in test [1] is given as less than 6.

As for `O=C1Nc2c(Cl)cc3cc(C(=O)NCC(F)(F)F)oc3c2C2(CCCCC2)N1` [Example 378, 5′-Chloro-7′-oxo-N-(2,2,2-trifluoroethyl)-7′,8′-dihydro-6′H-spiro[cyclohexane-1,9′-furo[2,3-f]quinazoline]-2′-carboxamide], in test [1], the “PDE7b (pIC50)” value is on record as greater than 8.

As for `O=C1Nc2c(Cl)cc3cc(CN4Cc5cccnc5C4)oc3c2C2(CCCCC2)N1` [Example 545, 5′-Chloro-2′-{5H,6H,7H-pyrrolo[3,4-b]pyridin-6-ylmethyl}-7′,8′-dihydro-6′H-spiro[cyclohexane-1,9′-furo[2,3-f]quinazoline]-7′-one], the “PDE7b (pIC50)” value in test [1] is greater than 8.

Take `O=C1Nc2c(Cl)cc3cc(C(=O)NC4C[C@@H]5[C@H](C4)C5(F)F)oc3c2C2(CCCCC2)N1` (stereo partly drawn) [Example 336, 5′-Chloro-N-[(1R,5S)-6,6-difluorobicyclo[3.1.0]hexan-3-yl]-7′-oxo-7′,8′-dihydro-6′H-spiro[cyclohexane-1,9′-furo[2,3-f]quinazoline]-2′-carboxamide]: in test [1], the “PDE7b (pIC50)” value was greater than 8.

Regarding `O=C1Nc2c(Cl)cc3cc(C(=O)NCc4ccc(OC(F)F)cn4)oc3c2C2(CCCCC2)N1` [Example 334, 5′-Chloro-N-{[5-(difluoromethoxy)pyridin-2-yl]methyl}-7′-oxo-7′,8′-dihydro-6′H-spiro[cyclohexane-1,9′-furo[2,3-f]quinazoline]-2′-carboxamide], in test [1], the “PDE7b (pIC50)” value is reported as greater than 8.

In the case of `O=C1Nc2c(Cl)cc3nc(CN4CCC5(CCOC5=O)CC4)oc3c2C2(CCCCC2)N1` [Example 64, 5-Chloro-2-({1-oxo-2-oxa-8-azaspiro[4.5]decan-8-yl}methyl)-7,8-dihydro-6H-spiro[[1,3]oxazolo[5,4-f]quinazoline-9,1′-cyclohexane]-7-one], in test [1], the “PDE7b (pIC50)” value is given as greater than 8.

In the case of `O=C1Nc2c(Cl)cc3nc(CN4CCNCC4)oc3c2C2(CCCCC2)N1` [Example 37, 5-Chloro-2-(piperazin-1-ylmethyl)-7,8-dihydro-6H-spiro[[1,3]oxazolo[5,4-f]quinazoline-9,1′-cyclohexane]-7-one], in test [1], the “PDE7b (pIC50)” value is reported as greater than 8.

With `CN(CCC(=O)N(C)C)Cc1nc2cc(Cl)c3c(c2o1)C1(CCCCC1)NC(=O)N3` [Example 123, 3-({5-Chloro-7-oxo-7,8-dihydro-6H-spiro[[1,3]oxazolo[5,4-f]quinazoline-9,1′-cyclohexane]-2-ylmethyl}(methyl)amino)-N,N-dimethylpropanamide], the “PDE7b (pIC50)” value in test [1] is on record as greater than 8.

As for `COCCN(C)C(=O)c1cc2cc(Cl)c3c(c2o1)C1(CCCCC1)NC(=O)N3` [Example 232, 5′-Chloro-N-(2-methoxyethyl)-N-methyl-7′-oxo-7′,8′-dihydro-6′H-spiro[cyclohexane-1,9′-furo[2,3-f]quinazoline]-2′-carboxamide], the 50% inhibitory concentration (IC50) in test [2] is 10 to 100 nM.

For the molecule `O=C1Nc2c(Cl)cc3cc(CN4CCC(N5CCOCC5)CC4)oc3c2C2(CCCCC2)N1` [Example 518, 5′-Chloro-2′-{[4-(morpholin-4-yl)piperidin-1-yl]methyl}-7′,8′-dihydro-6′H-spiro[cyclohexane-1,9′-furo[2,3-f]quinazoline]-7′-one], in test [1], the “PDE7b (pIC50)” value is recorded as less than 6.

On to `O=C1Nc2c(Cl)cc3nc(CNCC(F)(F)F)oc3c2C2(CCCCC2)N1` [Example 43, 5-Chloro-2-{[(2,2,2-trifluoroethyl)amino]methyl}-7,8-dihydro-6H-spiro[[1,3]oxazolo[5,4-f]quinazoline-9,1′-cyclohexane]-7-one], for which the “PDE7b (pIC50)” value in test [1] is recorded as greater than 8.

For the molecule `CCN(Cc1cc2cc(Cl)c3c(c2o1)C1(CCCCC1)NC(=O)N3)C(C)C` [Example 506, 5′-Chloro-2′-{[ethyl(propan-2-yl)amino]methyl}-7′,8′-dihydro-6′H-spiro[cyclohexane-1,9′-furo[2,3-f]quinazoline]-7′-one], the “PDE7b (pIC50)” value in test [1] is listed as less than 6.

For the molecule `CN(CC(=O)N(C)C)Cc1nc2cc(Cl)c3c(c2o1)C1(CCCCC1)NC(=O)N3` [Example 79, 2-({5-Chloro-7-oxo-7,8-dihydro-6H-spiro[[1,3]oxazolo[5,4-f]quinazoline-9,1′-cyclohexane]-2-ylmethyl}(methyl)amino)-N,N-dimethylacetamide], the “PDE7b (pIC50)” value in test [1] is recorded as greater than 8.

Turning to `CS(=O)(=O)CCNCc1cc2cc(Cl)c3c(c2o1)C1(CCCCC1)NC(=O)N3` [Example 482, 5′-Chloro-2′-{[(2-methanesulfonylethyl)amino]methyl}-7′,8′-dihydro-6′H-spiro[cyclohexane-1,9′-furo[2,3-f]quinazoline]-7′-one], the IC50 in test [2] lay in the range of 10 to 100 nM.

Take `N#Cc1ccc(CNC(=O)c2cc3cc(Cl)c4c(c3o2)C2(CCCCC2)NC(=O)N4)cc1` [Example 332, 5′-Chloro-N-[(4-cyanophenyl)methyl]-7′-oxo-7′,8′-dihydro-6′H-spiro[cyclohexane-1,9′-furo[2,3-f]quinazoline]-2′-carboxamide]: the “PDE7b (pIC50)” value in test [1] is listed as greater than 8.

`CN(C)C(=O)COCc1nc2cc(Cl)c3c(c2o1)C1(CCCCC1)NC(=O)N3` [Example 176, 2-{5-Chloro-7-oxo-7,8-dihydro-6H-spiro[[1,3]oxazolo[5,4-f]quinazoline-9,1′-cyclohexane]-2-ylmethoxy}-N,N-dimethylacetamide]: in test [1], the “PDE7b (pIC50)” value was greater than 8.

For `CCc1cc(CN(C)C(=O)c2cc3cc(Cl)c4c(c3o2)C2(CCCCC2)NC(=O)N4)on1` [Example 427, 5′-Chloro-N-[(3-ethyl-1,2-oxazol-5-yl)methyl]-N-methyl-7′-oxo-7′,8′-dihydro-6′H-spiro[cyclohexane-1,9′-furo[2,3-f]quinazoline]-2′-carboxamide], the “PDE7b (pIC50)” value in test [1] was greater than 8.

On to `CN(C)C1CCN(Cc2cc3cc(Cl)c4c(c3o2)C2(CCCCC2)NC(=O)N4)CC1` [Example 534, 5′-Chloro-2′-{[4-(dimethylamino)piperidin-1-yl]methyl}-7′,8′-dihydro-6′H-spiro[cyclohexane-1,9′-furo[2,3-f]quinazoline]-7′-one], for which the “PDE7b (pIC50)” value in test [1] is less than 6.

As to `CN(C)C(=O)CCN(C)C(=O)c1nc2cc(Cl)c3c(c2o1)C1(CCCCC1)NC(=O)N3` [Example 189, 3-{1-5-Chloro-7-oxo-7,8-dihydro-6H-spiro[[1,3]oxazolo[5,4-f]quinazoline-9,1′-cyclohexane]-2-yl-N-methylformamido}-N,N-dimethylpropanamide], in test [1], the “PDE7b (pIC50)” value was greater than 8.
